Screen size: about 110,000 compounds; about 230 (0.21%) showed an effect of 50% or more. This is one part of the list.
Molecular target: DPAP1 (Plasmodium falciparum, UniProt Q8IIJ9)
Assay: primary screen, percent inhibition; read by cleavage of a fluorogenic dipeptide substrate; higher = more effect of the substance
Parameters: species or system P. falciparum D10 trophozoite lysates; single well
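Also: 30 min substrate incubation versus DMSO and 10 µM JCP410 controls.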

Sequence of DPAP1 (Q8IIJ9 whole entry, looked up): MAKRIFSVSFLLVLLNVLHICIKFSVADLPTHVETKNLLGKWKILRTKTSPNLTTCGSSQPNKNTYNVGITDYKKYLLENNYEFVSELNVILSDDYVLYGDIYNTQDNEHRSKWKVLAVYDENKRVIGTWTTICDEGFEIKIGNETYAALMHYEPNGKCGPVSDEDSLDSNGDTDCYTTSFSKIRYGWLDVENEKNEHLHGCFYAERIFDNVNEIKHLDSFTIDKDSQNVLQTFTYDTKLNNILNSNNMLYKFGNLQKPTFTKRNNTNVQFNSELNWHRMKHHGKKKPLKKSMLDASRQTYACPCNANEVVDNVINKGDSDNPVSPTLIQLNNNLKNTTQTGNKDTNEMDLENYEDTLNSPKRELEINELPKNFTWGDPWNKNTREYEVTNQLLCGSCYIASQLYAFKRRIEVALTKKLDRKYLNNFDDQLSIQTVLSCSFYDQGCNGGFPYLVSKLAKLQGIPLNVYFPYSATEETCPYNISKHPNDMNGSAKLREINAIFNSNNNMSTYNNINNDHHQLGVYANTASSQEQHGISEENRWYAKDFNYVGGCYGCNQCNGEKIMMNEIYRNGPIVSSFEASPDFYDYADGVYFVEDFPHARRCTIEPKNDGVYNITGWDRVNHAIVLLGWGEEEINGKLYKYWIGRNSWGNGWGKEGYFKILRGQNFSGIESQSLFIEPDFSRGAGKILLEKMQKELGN

| Compound | % Inhibition @ 10 uM [%] |
| --- | --- |
| Cc1nc(C)c(C(=O)NCc2ccco2)s1 | 2.41 |
| Cc1ccc(-n2ncc3c(N4CCOCC4)ncnc32)c(C)c1 | 2.24 |
| O=C(NCCc1ccccc1)C1CCCN(S(=O)(=O)c2cccs2)C1 (stereo not drawn) | 1.16 |
| COc1ccc(C)cc1NC(=O)C1C2C=CC(C2)C1C(=O)O (stereo not drawn) | 3.65 |
| COc1ccc(-c2cc(C(F)(F)F)c(C#N)c(SCC(=O)NC3CC3)n2)cc1OC | -0.68 |
| c1cc(-c2nc3cc(Oc4ccc5[nH]c(-c6ccncc6)nc5c4)ccc3[nH]2)ccn1 | 2.04 |
| COc1ccc2c(c1)C(=O)N(c1ccccc1)C(=O)/C2=C/Nc1ccccc1 | -2.63 |
| CCCCn1c(CCCNC(=O)c2ccccc2)nc2ccccc21 | -11.5 |
| CN1CCCN(c2ncc(-c3cccc(N4CCCCC4C(=O)NCC#N)c3)s2)CC1 (stereo not drawn) | 1.7 |
| O=C(Cc1ccccc1F)Nc1cccnc1Cl | -4.49 |
| Cc1c2cnn(CC(=O)NCCCSC3CCCCC3)c(=O)c2c(C)n1Cc1ccc(F)cc1 | -0.447 |
| NC(=O)CSc1nc(-c2ccccc2)nc2c1Cc1cc(Cl)ccc1O2 | 0.44 |
| Cc1nn2c(O)c3c(nc2c1-c1ccc(Cl)cc1)CCCC3 | 1.72 |
| Cc1ccc(C(=O)N/C(=C/c2ccccc2F)C(=O)N(C)C)cc1 | 2.76 |
| O=C(OCCN1CCCCC1)c1ccccc1Br | -3.63 |
| CC(=O)c1ccc(NC(=O)CN2C(=O)C3C4CCC(C4)C3C2=O)cc1 (stereo not drawn) | 3.29 |
| COc1cc(CN2CCN(Cc3cccc(C)c3)CC2)cc2c1OCO2 | -5.35 |
| COCCNC(=O)C1CCCN(c2nn3cc(-c4ccc(OC)cc4)nc3s2)C1 (stereo not drawn) | 3.21 |
| O=C1CSC(c2ccccc2)N1CC(O)c1ccc([N+](=O)[O-])cc1 (stereo not drawn) | 1.66 |
| N#Cc1c(N)nc(SCC(N)=O)c(C#N)c1-c1cccs1 | 4.15 |
| Cc1nc2c3ccccc3n3c(CCCC(=O)N4CCN(c5ccccn5)CC4)nnc3n2n1 | 2.04 |
| COc1ccc(OC)c(CN2CCN(Cc3ccc(Cl)cc3)CC2)c1 | -12.2 |
| COc1ccc2c(Cl)c(C(=O)O)sc2c1Cl | 1.38 |
| O=C(Nc1nccs1)C1=Cc2sc3c(c2CS1)CCCC3 | 0.442 |
| COc1ccc(C2SCC(=O)N2Cc2ccccc2)cc1 (stereo not drawn) | -4.11 |
| NC(=O)NC(CCc1ccccc1)c1ccccc1 (stereo not drawn) | -1.54 |

| Compound | % Inhibition @ 10 uM [%] |
| --- | --- |
| O=C(Nc1ccc(NC(=O)c2ccc3c(c2)OCO3)cc1)c1ccc2c(c1)OCO2 | 0.163 |
| CCc1nnc(NC(=O)c2cc3ccc4cccnc4c3[nH]2)s1 | 0.711 |
| O=C(O)CCCN1C(=O)C(O)=C(C(=O)c2ccc(Cl)cc2)C1c1ccc(F)cc1 (stereo not drawn) | 3.49 |
| Cc1nn(C)cc1CNC(=O)c1cnn2c1NC(c1ccc(Br)cc1)CC2C(F)(F)F (stereo not drawn) | 3.89 |
| CC1=C(c2ccc(C(C)C)cc2)S(=O)(=O)N=C1N1CCC(C(=O)NCc2ccc(F)cc2)CC1 | -1.56 |
| CCOc1ccc(C(=O)C2=C(O)C(=O)N(CCN(C)C)C2c2ccc(C)o2)cc1Cl (stereo not drawn) | -5.93 |
| CC(=O)Nc1cc(C(N)=O)c(Cl)cc1Cl | 1.08 |
| COc1ccc(CN2CCc3ccccc3C2)cc1Br | 2.96 |
| O=C(c1ccc(COc2cccc(Cl)c2)o1)N1CCCCC1 | -4.18 |
| Cc1ccccc1C(=O)Nc1c(C(=O)N2CCOCC2)cnn1-c1ccccc1 | 4.83 |
| CC(C)c1ccc(C(=O)Nc2ccc(S(=O)(=O)Nc3nccs3)cc2)cc1 | -1.42 |
| CC(C)OC(=O)/C(=C/c1ccc2c(c1)OCO2)NC(=O)c1ccco1 | -1.81 |
| C/C(Cl)=C/Cn1c(SCc2ccccc2Cl)nc2c1c(=O)[nH]c(=O)n2C | 2.36 |
| CCOc1ccc(-c2nc3s/c(=C\c4cccnc4)c(=O)n3n2)cc1 | 0.222 |
| N=c1scc(-c2ccc(Br)cc2)n1-c1ccccc1 | 11.5 |
| Cc1c(CNC2CCCc3ccccc32)c(C(=O)O)c(C)n1Cc1ccc(F)cc1 (stereo not drawn) | -5.49 |
| CN(C)CCN(C)CC1=CC[C@H]2C[C@@H]1C2(C)C | -2.21 |
| O=[N+]([O-])c1cc(C(F)(F)F)ccc1-n1nnc2ccccc21 | 2.94 |
| N#CC1=C(N)Oc2[nH]nc(-c3ccccc3)c2C1c1ccc(F)cc1F (stereo not drawn) | -6.36 |
| O=C(CNS(=O)(=O)c1ccccc1)N1CCN(c2ccc(F)cc2)CC1 | -3.83 |
| COc1cc(OC)cc(C(=O)Nc2nc(-c3nnn(-c4ccc(OC)c(OC)c4)c3C)ns2)c1 | -5.67 |
| Cc1ccc(-c2cc(C(=O)NCCN3CCOCC3)c3ccccc3n2)o1 | 2.32 |
| Cc1nnc2c(O)nc3ccccc3n12 | 1.3 |
| CCOc1ccc2c(c1)S/C(=C\c1ccccc1)C2=O | -0.366 |
| Cc1cc(Cl)ccc1OCC(=O)N1CCc2ccccc21 | -7.58 |
| c1ccc2c(c1)CSc1ccccc1C2 | -5.79 |

| Compound | % Inhibition @ 10 uM [%] |
| --- | --- |
| COc1ccc(C(=O)N2CCN(Cc3cccc(Cl)c3)CC2)cc1OC | -7.45 |
| CCOc1ccc(CCNC(=O)CCc2nnc3ccc(N4CCC(C)CC4)nn23)cc1OCC | -0.544 |
| CCN(Cc1ccccc1)C(=O)Cn1cc(C=O)c2ccccc21 | 0.718 |
| CCC(C)NC(=O)C1CCN(c2ncnc3c2sc2cccc(F)c23)CC1 (stereo not drawn) | -2.37 |
| COc1cc(C2C3=C(O)CCCC3=Nc3nc(SC)nc(O)c32)cc(OC)c1OC (stereo not drawn) | 3.61 |
| Cc1ccc(NC(=O)NC(C)c2ccc(C)cc2C)cc1 (stereo not drawn) | -6.59 |
| O=C(NC1CCCC1)c1nnc(-c2ccccc2)o1 | 3 |
| C(=N\n1cnnc1)/c1cccs1 | 3.06 |
| CCOC(=O)C1C(=O)C=C(Nc2ccc(OC)cc2)CC1c1ccccc1 (stereo not drawn) | -1.96 |
| Cc1ccc(NC(=O)CC(C)(C)CC(=O)O)cc1Cl | -1.28 |
| CCSc1nc(O)cc(=O)n1CC | 4.9 |
| CC1CCN(C(=O)CCNS(=O)(=O)c2ccc3nc(O)ccc3c2)CC1 | 1.66 |
| COc1ccc(Br)cc1CN1CCN(c2ccc([N+](=O)[O-])cc2)CC1 | -2.81 |
| CCN(CC)c1ccc(NC(=O)c2ccc(C)o2)cc1 | 3.92 |
| CSc1ncc(C(=O)NC(C)(C)C)c(-c2ccccc2)n1 | 2.9 |
| N#CC(C(=O)Nc1ccccc1)=C1CCCC1 | -8.38 |
| COc1cc(C=C2C(=O)N(C)C(=O)N(C)C2=O)ccc1OCc1ccc(Cl)cc1Cl | 1.43 |
| Cc1nc(=O)c(-c2ccccc2)c(C)n1CCCCCC(=O)O | 1.02 |
| CCc1ccc(C2CC(c3ccccc3C)n3ncnc3N2)cc1 (stereo not drawn) | -3.37 |
| CC(C)C(=O)N1CCC(C/N=C/C2=C(O)CC(C)(C)CC2=O)CC1 | 4.55 |
| O=C(Cn1ncc2c3ccccc3nc-2c1O)N1CCC(Cc2ccccc2)CC1 | -1.46 |
| COc1ccccc1C(=O)Nc1sc2c(c1C(=O)O)CCCC2 | 14.4 |
| CCC(C(=O)NCc1ccco1)n1nc(C)c2c(C)n(-c3ccccc3)nc2c1=O (stereo not drawn) | -6.13 |
| CO/N=C(/C(=O)O)c1cn2cc(Br)ccc2n1 | -7.87 |
| CCCCCOc1ccc(C2NC(C(=O)O)CS2)cc1 (stereo not drawn) | -2.54 |
| COc1cc(C2c3c(oc4ccccc4c3=O)C(=O)N2c2nncs2)ccc1O (stereo not drawn) | 2.1 |

| Compound | % Inhibition @ 10 uM [%] |
| --- | --- |
| CC(C)CC(=O)NC1(C(F)(F)F)N=C(c2ccccc2)NC1=O (stereo not drawn) | 2.64 |
| N#Cc1ccc(-n2nnc3ccccc32)cc1 | 2.99 |
| Cc1ccc(C(=O)Nc2c(C)nn(Cc3ccc(Cl)cc3)c2C)cc1 | -2.99 |
| N#Cc1c(-n2ncnc2-c2ccc(Cl)cc2Cl)sc2c1CCCCC2 | 2.65 |
| CC(=O)c1cccc(NC(=O)CSc2ncccn2)c1 | 0.643 |
| CC(C)N(Cc1nc(-c2ccccc2)no1)C(=O)C(c1ccccc1)c1ccccc1 | -3.06 |
| Oc1c2c(nc3nc(NCc4cccs4)nn13)CCC2 | -2.62 |
| CC(=O)NC1=NN(C(C)=O)C(C)(CS(=O)(=O)c2ccc(C)cc2)S1 (stereo not drawn) | 3.53 |
| COc1ccc2c(Cl)c(C(=O)N3CCCC3)sc2c1 | 0.565 |
| O=C(c1cccc(F)c1)N1CCN(c2ccc(Cl)cc2)CC1 | 1.27 |
| COc1ccc(CCNC(=O)c2csc3c2CCCC3)c(OC)c1 | -5.05 |
| O=C(c1cnn(-c2ccccc2)c1-n1cccc1)N1CCC(C(=O)N2CCc3ccccc3C2)CC1 | -5.19 |
| COc1ccc(CN2CCN(Cc3cccc(Cl)c3)CC2)c(OC)c1OC | -10.5 |
| OC1(c2ccccc2)CCC(O)(c2ccccc2)CC1 (stereo not drawn) | -3.9 |
| O=C(c1ccncc1)N1CCN(Cc2ccc(Br)cc2)CC1 | -3.13 |
| COc1ccc(-c2nc(CSc3nnc(C)n4c3cc3oc(C)cc34)c(C)o2)cc1 | 3.61 |
| O=C(c1ccccc1)c1ccc2nc(N3CCN(C(=O)c4ccco4)CC3)c3nncn3c2c1 | 4.05 |
| CCC(C)NC(=O)CCCn1nc(C)n2c(cc3sccc32)c1=O (stereo not drawn) | 0.137 |
| CCOc1ccccc1CNC(=O)C1=Cc2sc(C)c(C)c2CS1 | 5.4 |
| CC1CCN(C(=O)c2ccc(-n3ccc4ccccc43)s2)CC1 | 5.72 |
| O=C(NCc1ccccc1)C12CC3CC(CC(Cl)(C3)C1)C2 | -1.77 |
| O=C(Nc1ccc2c(c1)OCCO2)c1ccc(Br)o1 | -0.598 |
| COc1ccc(OC)c(C2C3=C(CC(C)(C)CC3=O)OC3=C2C(=O)CC(C)(C)C3)c1 | -5.15 |
| Cn1cc(/C=C(\NC(=O)c2ccco2)C(=O)NCc2ccccc2)c2ccccc21 | -0.0235 |
